Source: PubChem BioAssay AID463173 (ICCB-Longwood Screening Facility, Harvard Medical School, 2010)
Among all 52,000 compounds or so, about 1,700 (3.3%) were called active. Rule as the data show it: active = survival mostly below about 52% (no sharp cut-off); inactive = mostly above about 56%. The list shows a part of the results.

Tested on: Wild type
Assay: growth inhibition of S. aureus wild type versus tarO mutant, primary screen, teichoic acid synthesis inhibitors, RN4220, OD600 (AID 463173)
Settings: S. aureus RN4220 wild type/DeltatarO growth, OD600, 18 h, active compounds read low, screened at 18.75 µg/mL (by protocol)

Compound	survival
Cc1cc(C)cc(NC(=O)Nc2ccc3nc(N4CCN(C)CC4)cc(C)c3c2)c1	inactive: 128%
CC1(C)CC(=O)c2cc(C#N)c(=O)n(-c3ccc(Cl)cc3)c2C1	inactive: 64%
CCCOc1nc(N)c(C#N)c(-c2ccccc2F)c1C#N	inactive: 114%
CCc1ccc(NC(=O)c2ccc(F)c(S(=O)(=O)N3CCN(c4ccc(OC)cc4)CC3)c2)cc1	inactive: 64%
Cc1ccsc1CN(C(=O)c1ccc(OCC(C)C)cc1)C1CCS(=O)(=O)C1 (stereo unspecified)	inactive: 85%
COc1ccc(NC(=O)Cn2cc(C(=O)c3ccccc3)c(=O)c3cc(OC)ccc32)c(OC)c1	inactive: 89%
O=C(O)CCC(=O)Nc1sc2c(c1C(=O)Nc1ccccc1)CCCCC2	inactive: 100%
CSc1ccc(NC(=O)N2C3CCC2CC(O)(c2cccnc2)C3)cc1 (stereo unspecified)	inactive: 111%
CCOC(=O)c1cccc(NS(=O)(=O)c2cc(-c3cnc(C4CC4)o3)ccc2C)c1	inactive: 97%
Cc1ccc2oc(-c3cccc(NC(=O)Cc4ccc(Cl)cc4)c3)nc2c1	inactive: 74%
CCOC(=O)c1c(S(=O)(=O)N2CCCC(C(=O)Nc3ccc(C)cn3)C2)c(C)n(C)c1C (stereo unspecified)	inactive: 59%
Cc1ccc(-n2c3nc(=O)[nH]c(=O)c-3cc3c(C)nn(-c4ccccc4)c32)cc1C	inactive: 116%
Cc1ccc(Sc2c(C)nn(C(=O)c3ccc(Cl)cc3)c2C)cc1	active: 2%
Cc1c(C(=O)OC(C)C)sc(NC(=O)C2c3ccccc3Oc3ccccc32)c1C(=O)OC(C)C	inactive: 87%
NC(=O)N/N=C/c1ccc(-c2ccc(Cl)cc2)o1	inactive: 106%
Cc1cccc(NC(=O)CSc2nc3ccccc3nc2N2CCOCC2)c1C	inactive: 65%
CC(C)c1n[nH]c(=S)n1C	inactive: 101%
CCOC(=O)C1=C(C)NC(=O)NC1C1CC=CCC1 (stereo unspecified)	inactive: 116%
CC(=O)ON1C(c2ccccc2)[N+]([O-])=C(c2ccccc2)C1(C)C (stereo unspecified)	inactive: 115%
CCOc1ccc(CNS(=O)(=O)c2cc3c(cc2C)NC(=O)CO3)cc1	inactive: 79%
CC(=O)c1ccc(N2CCN(C(=O)CCCCn3c(=O)[nH]c4ccsc4c3=O)CC2)cc1	inactive: 86%
COc1ccc(Cn2c(=O)c3cccnc3n(CC(=O)Nc3c(C)cc(C)cc3C)c2=O)cc1	inactive: 85%
CCc1cnc2c(c1SCC(=O)c1ccc(Cl)cc1)c(=O)n(C)c(=O)n2C	inactive: 72%

Compound	survival
CCOC(=O)C1=C(c2ccccc2)OC(N)=C(C#N)C1c1ccncc1 (stereo unspecified)	inactive: 108%
CCOC(=O)c1c(-c2ccc(OC)cc2)oc2ccc(OCc3ccc(Br)cc3)cc12	inactive: 73%
CCSc1nnc(NC(=O)c2cc(=O)c3cc(C)c(C)cc3o2)s1	inactive: 84%
O=C(Nc1cccc(C(F)(F)F)c1)c1cc(-c2ccc3c(c2)OCCO3)on1	inactive: 111%
Cc1ccc(N(CC(=O)Nc2ccc(Br)cc2)S(=O)(=O)c2cccs2)cc1	inactive: 81%
CCc1ccccc1NC(=O)c1ccc2nc(C(C)C)oc2c1	inactive: 75%
COc1ccc(S(=O)(=O)n2nc(C)c(S(=O)(=O)N3CCC(C)CC3)c2C)cc1OC	inactive: 81%
Cc1ccccc1NC(=O)CC1COc2ccccc2O1 (stereo unspecified)	inactive: 111%
O=C(NCCc1ccc(F)cc1)C(=O)NCC(c1ccco1)S(=O)(=O)c1cccs1 (stereo unspecified)	inactive: 53%
CC(C)CCNC(=O)CCC(=O)NNc1nc2ccccc2c2nc(-c3ccccc3)nn12	inactive: 145%
O=c1c(Cl)c(NCCO)ncn1-c1ccccc1	inactive: 112%
COc1cc(OC)cc(C(=O)N2CC(=O)Nc3ccc(Cl)cc3C2c2ccccc2)c1 (stereo unspecified)	inactive: 80%
O=C(Nc1nnc2n1CCS2)c1ccccc1C(F)(F)F	inactive: 92%
O=C(Nc1ccc(Cl)c(C(F)(F)F)c1)C(Cc1ccccc1)NS(=O)(=O)c1ccc(Br)s1 (stereo unspecified)	inactive: 84%
Brc1cccc(-c2cnn3c(-c4ccccc4)cc(-c4ccccc4)nc23)c1	inactive: 71%
COc1ccc(C2=C(C)C(N3CCC(C(=O)Nc4ccc(F)cc4C)CC3)=NS2(=O)=O)cc1	inactive: 59%
CCC(C)(C)n1nnnc1C(c1ccccc1OC)N1CCN(C(=O)c2ccco2)CC1 (stereo unspecified)	inactive: 105%
O=C1CC(N2CCCC2)C(=O)N1c1ccccc1 (stereo unspecified)	inactive: 96%
COc1cccc(C(=O)NCC(c2ccc3c(c2)OCO3)N2CCOCC2)c1 (stereo unspecified)	inactive: 118%
CCOc1ccc(NC(=O)C(=O)NCc2ccco2)cc1	inactive: 76%
CCN(CC)C(=O)CN1C(=O)/C(=C/c2ccccc2)SC1=S	inactive: 117%
O=C(NCc1ccccc1)C(=O)NCC(c1cccs1)S(=O)(=O)c1ccccc1 (stereo unspecified)	inactive: 64%
CSc1nc(C)c2cc(C)ccc2n1	inactive: 119%

Compound	survival
COc1ccc2cc3cc(C(=O)NCc4ccccc4OC)oc3nc2c1	inactive: 80%
Cc1ccc(N(Cc2cccs2)C(=O)c2ccccc2Cl)cc1	inactive: 88%
Cc1ccc(-c2nc3ncccc3o2)cc1NC(=O)c1ccc(-c2ccc(Cl)cc2)o1	inactive: 73%
Cc1cccc(N2CCN(S(=O)(=O)c3csc(C(N)=O)c3)CC2)c1C	inactive: 81%
COc1ccc2cc(C#N)c(=S)[nH]c2c1	inactive: 95%
Cc1cccc(NC(=O)CSc2nc(-c3ccco3)cc(C(F)(F)F)n2)c1C	inactive: 81%
C#Cc1ccc(C#C)cc1	inactive: 111%
CCOC(=O)c1ccc(NC(=O)c2cc3sccc3n2Cc2ccc(Cl)cc2)cc1	inactive: 87%
CC1(NS(C)(=O)=O)CC=CC1	inactive: 116%
O=C(Nc1nnc2n1CCS2)c1ccc(F)cc1F	inactive: 84%
O=C(c1ccccc1Cl)N1CCCCC1CCN1CCCCC1 (stereo unspecified)	inactive: 106%
COc1ccc(C)cc1NC(=O)Cn1c(=O)n(Cc2nc(C)no2)c(=O)c2ccccc21	inactive: 85%
COc1ccc(NC(=O)C(C)N(c2ccccc2)S(C)(=O)=O)cc1 (stereo unspecified)	inactive: 71%
COc1ccc(CCNC(=O)c2ccc(Cn3c(=O)c4ccccc4n(Cc4cccc(Cl)c4)c3=O)cc2)cc1OC	inactive: 95%
CCOc1ccccc1NC(=O)C(CC)Sc1nc2ccncc2[nH]1 (stereo unspecified)	inactive: 120%
O=C(Nc1ccc(C(F)(F)F)cc1)N1C2CCC1CC(O)(c1cccnc1)C2 (stereo unspecified)	inactive: 73%
Cc1cccc(Nc2nc3nonc3nc2N/N=C\c2cccs2)c1C	inactive: 96%
Cc1nn2c(=O)cc(COC(=O)c3ccccc3NC(=O)C(C)Oc3ccccc3)nc2s1 (stereo unspecified)	inactive: 74%
CCOc1ccc(CN2CCc3nc(Nc4ccc5c(c4)OCCO5)ncc3C2)cc1	inactive: 80%
COc1ccc(NCc2cc3cc4c(cc3n(CC(=O)Nc3cc(C)ccc3C)c2=O)OCCO4)cc1	inactive: 70%
CC(C)c1ccc(NS(=O)(=O)c2ccc3nc(-c4ccccc4)[nH]c3c2)cc1	inactive: 63%
CC(Sc1nnc(-c2ccco2)n1-c1ccccc1)C(=O)NC(c1ccccc1)c1ccccc1 (stereo unspecified)	inactive: 139%
Cn1c(=O)c2cc(C(=O)NCCCN3CCN(c4ccccc4F)CC3)sc2c2ccccc21	inactive: 78%

Compound	survival
Cc1ccc(-n2c(=O)c3ccc(C(=O)NCc4ccco4)cc3n(Cc3ccccc3C#N)c2=O)cc1	inactive: 130%
O=C(OCC1CCNCC1)c1ccc(F)cc1	inactive: 103%
Cc1ccc(-c2cn(-c3cccc(Cl)c3)c(S(=O)(=O)CC(=O)Nc3ccccc3F)n2)cc1	inactive: 70%
CCN(CC)c1cc2c(cc1F)c(=O)c(S(=O)(=O)c1cccc(C)c1)cn2C	inactive: 112%
CCOc1ccc(C2CC(=O)N(c3cccc(F)c3)C3=C2C(=O)OC3)cc1 (stereo unspecified)	inactive: 160%
Cc1ccc(-n2nc3c(=O)n(CCCC(=O)NCCc4ccccc4Cl)nc(C)c3c2C)cc1	inactive: 77%
COc1ccc(NC(=O)c2ccc3c(c2)sc2nc(-c4ccc(OC)cc4)cn23)cc1	inactive: 85%
Cc1ccc(NC(=O)Cn2c(=O)n(Cc3ccco3)c(=O)c3ccccc32)c(C)c1	inactive: 90%
Cc1ccc2c(c1)c1c(c(=O)n(-c3cccc(Cl)c3)c(=O)n1CC(=O)N1CCCC1)n2C	inactive: 73%
COc1cc(C2c3c(oc4cc(C)c(C)cc4c3=O)C(=O)N2CCCN2CCOCC2)ccc1O (stereo unspecified)	inactive: 77%
CCOC(=O)c1cc(S(=O)(=O)Nc2ccc(Br)c(C)c2)[nH]n1	inactive: 67%
Cc1n[nH]c(C)c1N1C(=O)c2cccc3c(N4CCCCC4)ccc(c23)C1=O	inactive: 116%
Cc1c(C(=O)N2CCC(c3nc4ccccc4s3)CC2)oc2cc(Br)ccc12	inactive: 116%
CCCCn1c(SCC(=O)OC)nc2ccccc2c1=O	inactive: 103%
CCOc1ccc(-n2c(SCc3nc(-c4ccc(OC)cc4)no3)nnc2-c2ccncc2)cc1	inactive: 79%
COc1ccc(Br)cc1CNC(=O)c1cc(=O)[nH]c2ccc(S(=O)(=O)N3CCCC3)cc12	inactive: 68%
CCOc1cccc2cc(-c3nc4sc5c(c4c(=O)[nH]3)CCC(C(C)(C)C)C5)c(=O)oc12 (stereo unspecified)	inactive: 85%
CCCNC(=O)c1cc2nc(-c3ccc(Br)cc3)cc(C(F)(F)F)n2n1	inactive: 86%
COc1ccc(Br)cc1CNC(=O)c1cc2ccccn2n1	inactive: 73%
O=C(COC(=O)c1cc(-c2cccs2)nc2ccccc12)c1ccc(Br)cc1	inactive: 131%
CCOc1ccccc1NC(=O)Cn1c(=O)n(CCC(C)C)c(=O)c2cccnc21	inactive: 85%
Cc1cc(C)cc(OCCn2c(C3CC(=O)N(c4ccccc4Cl)C3)nc3ccccc32)c1 (stereo unspecified)	inactive: 97%
